# Results reported in PubChem BioAssay (Tox21).
# Values joined by “and” are separate entries in the source; they are usually repeats but may differ in a detail not shown here. Equal values may be shown once. The shares of active, inactive and inconclusive entries below differ from those in the screen. Where the call is inconclusive, the potency comes from a doubtful curve fit. Active and inactive are the calls of the source. Unless noted, the call rests on the fitted dose curve; in most records, active means well fitted curve in the direction sought with a large enough effect in the repeat runs; inconclusive means weak or mixed curves; inactive means no such curve, though single readings can be large; an effect the other way counts as inactive or inconclusive.
# Test: qHTS assay to identify small molecule agonists of the progesterone receptor (PR) signaling pathway - cell viability counter screen (AID 1346799; calls by dose curve; further: nearly all actives have a fitted effect of over 45% in size)
# Details: PR-UAS-bla HEK293T viability, CellTiter-Glo luminescence, 16 h; series mostly up to 92.4 µM
# Summary of the method: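 PR-UAS-bla HEK293T cells, 3,000 per well in medium with 2% charcoal-stripped FBS, were preincubated 6 hr at 37C, then exposed to compounds for 16 hr; viability was read as CellTiter-Glo luminescence after 30 min at room temperature.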
# Potency means the concentration at half of the fitted maximal effect; tags describe the fitted curve by direction and shape or compound fluorescence and quenching.
row,SMILES,Potency
1,CCO[Si](CCCSSSSCCC[Si](OCC)(OCC)OCC)(OCC)OCC,"inconclusive: 8.64 µM [cytotoxic, partial curve, poor fit]"
2,COC(=O)c1ccc(C)cc1,inactive
3,O=c1cccccc1O,"inconclusive: 69.9 µM [rising, single point]"
4,C[C@]12CC[C@H]3[C@@H](CCC4=CC(=O)CC[C@@]43C)[C@@H]1CC[C@@H]2C(=O)CO,"inconclusive: 54.5 nM [rising, full curve] and inconclusive: 106 nM [rising, full curve]"
5,Cc1ccc(C=O)s1,"inconclusive: 27.3 µM [cytotoxic, partial curve]"

# Test: qHTS assay to identify small molecule antagonists of the TGF-beta/Smad signaling pathway - cell viability counter screen (AID 1346824); further: nearly all actives have a fitted effect of over 50% in size
# Details: SBE-bla HEK293T viability, CellTiter-Glo luminescence; series mostly up to 76.8 µM
# Summary of the method: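 Cytotoxicity counter-screen run in the same wells as the beta-lactamase Smad reporter read: CellTiter-Glo luminescence after 30 min at room temperature. HEK 293T SBE-bla cells had 5 hr compound exposure at 37 C with TGF-beta1 (0.25 ng/mL stock).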
row,SMILES,Potency
1,C[Si]1(C)O[Si](C)(C)O[Si](C)(C)O1,"inconclusive: 1.95 µM [cytotoxic, single point]"
2,CCCCCCCOC(=O)CCC,"inconclusive: 4.9 µM [cytotoxic, partial curve, poor fit]"
3,CC(C)=CCC/C(C)=C/CO,"inconclusive: 2.22 µM [cytotoxic, single point]"
4,CCC(=O)OCc1ccc(OC)cc1,"inconclusive: 39.9 µM [rising, partial curve, poor fit]"
5,COc1ccccc1OCC1CNC(=O)O1 (stereo not given),inactive
6,Oc1cccc(O)c1,inactive
7,CC(S)C(C)S (stereo not given),"inconclusive: 0.923 µM [cytotoxic, full curve, poor fit]"
8,C=CC(=O)OCCCCCCOC(=O)C=C,"inconclusive: 61.7 µM [rising, partial curve, poor fit]"
9,C=C(C)C(=O)OCC(C)(C)COC(=O)C(=C)C,"inconclusive: 8.71 µM [rising, partial curve, poor fit]"
10,CCC1COC(=O)O1 (stereo not given),inactive
11,Cc1cc(C(C)(C)C)c(O)c(C)c1Cn1c(=O)n(Cc2c(C)cc(C(C)(C)C)c(O)c2C)c(=O)n(Cc2c(C)cc(C(C)(C)C)c(O)c2C)c1=O,"inconclusive: 0.49 µM [cytotoxic, single point]"
12,NC(=O)CC[C@@H](N)C(=O)O,inactive
13,C/C=C(\C)C#N,inactive
14,Cc1cccc(Nc2cc(Cl)nc(SCC(=O)O)n2)c1C,"inconclusive: 2.68 µM [cytotoxic, single point]"
15,CCOC(=O)c1c(N)sc2c1CCN(Cc1ccccc1)C2,"inconclusive: 6.74 µM [cytotoxic, single point]"
16,C=Cc1ccccc1,"inconclusive: 5.42 µM [cytotoxic, single point]"

# Test: qHTS assay to identify small molecule agonists of the TGF-beta/Smad signaling pathway - cell viability counter screen (AID 1346829); further: nearly all actives have a fitted effect of over 45% in size
# Details: SBE-bla HEK293T viability, CellTiter-Glo luminescence, 5 h; series mostly up to 76.8 µM
# Summary of the method: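 CellTiter-Glo luminescence readout; SBE-bla HEK 293T cells, overnight plating, compound 5 hr at 37 C/5% CO2, then bla substrate 2 hr RT, then CellTiter-Glo 30 min RT.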
row,SMILES,Potency
1,CCCN[C@H]1CCc2nc(N)sc2C1,"inconclusive: 5.9 µM [cytotoxic, single point]"
2,COc1ccccc1OCC1CNC(=O)O1 (stereo not given),"inconclusive: 26.8 µM [rising, single point]"
3,CN[C@@H]1[C@@H](O)[C@@H](O[C@@H]2[C@H](O)[C@H](O[C@H]3OC(CN)=CC[C@H]3N)[C@@H](N)C[C@H]2N)OCC1(C)O (stereo not given in full),"inconclusive: 26.8 µM [cytotoxic, single point]"

# Test: qHTS assay to identify small molecule agonists of the TGF-beta/Smad signaling pathway (AID 1346859; active means well fitted activation curve with a large enough effect in the signal ratio in the repeat runs, not every such curve was filed as active; inconclusive means weak or mixed curves; the % refers to the signal ratio; on activation: on the % scale 0 is the no-effect control and ±100 the full control effect)
# Details: SBE-bla HEK293T, TGF-beta/Smad beta-lactamase reporter, 5 h; activation: at 76.8 µM (top of the series) unless noted
# Summary of the method: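 HEK 293T cells stably carrying a beta-lactamase reporter driven by the Smad binding element were seeded overnight, exposed to DMSO-dissolved compounds for 5 hr at 37 C, 5% CO2, then loaded with FRET substrate for 2 hr at room temperature.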
SMILES,Potency,activation
CCCN[C@H]1CCc2nc(N)sc2C1,inactive,–
CCO[Si](CCCSSSSCCC[Si](OCC)(OCC)OCC)(OCC)OCC,"inconclusive: 49 µM [rising, single point]",–
COC(=O)c1ccc(C)cc1,"inconclusive: 7.97 µM [rising, partial curve, poor fit]",–
C[C@H](CCC(=O)O)[C@H]1CC[C@H]2[C@@H]3[C@H](O)C[C@@H]4C[C@H](O)CC[C@]4(C)[C@H]3CC[C@]12C,"inconclusive: 43.8 µM [rising, partial curve]",–
COc1ccccc1OCC1CNC(=O)O1 (stereo not given),inactive,–
ONc1ccccc1,inactive,–
Cc1cc(SC2=C(O)C[C@@](CCc3ccc(N)cc3)(C(C)C)OC2=O)c(C(C)(C)C)cc1CO,"inconclusive: 43.6 µM [rising, single point]",–
C[C@]12CC[C@H]3[C@@H](CCC4=CC(=O)CC[C@@]43C)[C@@H]1CC[C@@H]2C(=O)CO,"inconclusive: 21.9 µM [rising, partial curve]",–
CCOCCn1c(N2CCCN(C)CC2)nc2ccccc21,inactive,–
C=C(C)C(=O)OCCOC(=O)C(=C)C,inactive,–
CN(C)CC/C=C1/c2ccccc2COc2ccc(CC(=O)O)cc21,inactive,–
CC1=NN(c2ccc(S(=O)(=O)O)cc2)C(=O)C1,inactive,–
Brc1c2ccccc2c(Br)c2ccccc12,active: 2.22 µM,–
CN[C@@H]1[C@@H](O)[C@@H](O[C@@H]2[C@H](O)[C@H](O[C@H]3OC(CN)=CC[C@H]3N)[C@@H](N)C[C@H]2N)OCC1(C)O (stereo not given in full),"inconclusive: 21.3 µM [falling, single point]",–
O=C(O)c1ccc(C(=O)O)cc1,inactive,–
CCC(C)NC(N)=O (stereo not given),inactive,–
CCCCCCCCC(=O)OCC(C)OC(=O)CCCCCCCC (stereo not given),inactive,–
C[C@@H]1C[C@H]2[C@@H]3CCC4=CC(=O)C=C[C@]4(C)[C@@]3(Cl)[C@@H](O)C[C@]2(C)[C@@]1(OC(=O)c1ccco1)C(=O)CCl,–,inconclusive: 17.6% [at 35.3 µM]
CCOC(=O)c1c(N)sc2c1CCN(Cc1ccccc1)C2,active: 7.56 µM,–
CCCOC(=O)c1ccc(C(=O)OCCC)nc1,"inconclusive: 19.5 µM [rising, partial curve]",–
O=C(O)CNC(=O)c1ccc(CO)o1,inactive,–
